The list shows a part of the results. Shown are side measurements of this screen, not its main read-out; they come without a call. Compounds called inactive in the main read-out are mostly missing here.
Experiment: beta-lactam sensitization of Mtb H37Rv, H37Rv (AID 434955);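 note: growth measured after seven days incubation then overnight dye step; 0% = bacteria only wells and 100% = bacteria with antibiotic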
Conditions: M. tuberculosis H37Rv growth with meropenem, percent inhibition; measured here: primary screen without meropenem; at 25 µM

| SMILES | inhibition [%] |
| --- | --- |
| CCCCOP(=O)(c1ccc(N(C)C)cc1)C(O)c1c(Cl)cccc1Cl (configuration not stated) | 2.86 |
| CSc1ccc(/C=N/n2c(COc3ccccc3)n[nH]c2=S)cc1 | 5.72 |
| COc1cc(NS(=O)(=O)c2c(C)[nH]c(C)c2C(=O)N2CCCC2)cc(OC)c1OC | -4.22 |
| COc1ccc(N(CC(=O)Nc2ccc(S(=O)(=O)N3CCCC3)cc2)S(C)(=O)=O)cc1OC | 10.1 |
| CCn1ncc2c1C(=O)NC1c3ccccc3C(=O)N21 (configuration not stated) | 2.49 |
| O=[N+]([O-])c1ccc(Sc2nc3ccccc3o2)c([N+](=O)[O-])c1 | 100 |
| COc1ccc(C2c3[nH]c4ccccc4c3C[C@H]3C(=O)N(C4CCN(Cc5ccccc5)CC4)CC(=O)N23)c(OC)c1 (some centres not stated) | 30.2 |
| CCCOc1ccc(/C=N/NC(=O)c2c(-c3ccccc3)noc2C)cc1OC | 4.11 |
| CC(C)(C)c1nc2scc(-c3cccs3)c2c(=O)o1 | 9.69 |
| O=c1c2ccccc2nc(COc2ccccc2)n1/N=C/c1cc([N+](=O)[O-])ccc1O | 37.8 |
| O=C1Nc2c(ccc(Cl)c2Cl)C(=O)C1(F)c1ccccc1 (configuration not stated) | 34.5 |
| COc1ccc(C(=O)Nc2ccc3nc(N4CCCCC4)cc(C)c3c2)c(OC)c1 | 6.26 |
| CCCCCC(=O)Nc1c(-c2ccc(OC)cc2)c(=O)c2ccccc2n1C | 4.92 |
| c1ccn2c(c1)nc1c2nc2ccccn21 | 0.95 |
| Cc1ccc(/C=C/S(=O)(=O)NCC(=O)OCC(=O)NCc2ccccc2)cc1 | 6.29 |
| CC1CCc2nn(CC(=O)NCc3ccc(F)cc3)cc2C1 (configuration not stated) | -10.4 |
| O=C1NCCN(Cc2cccc(Oc3ccccc3)c2)C1CC(=O)N1CCCCC1 (configuration not stated) | 0.41 |
| Cc1ccc2nc(N(CCN(C)C)C(=O)c3ccc4ccccc4c3)sc2c1 | 3.77 |
| CC(C)(C)c1ccc(C(=O)NCc2nnc(SCC(=O)NCc3ccco3)o2)cc1 | -1.92 |
| COCCCNc1nc2ccccc2nc1NS(=O)(=O)c1ccc(OC)cc1 | 7.05 |
| Oc1ccc(Br)cc1/C=N/n1c(C2CCCCC2)n[nH]c1=S | -6.89 |
| O=C(NCc1cccnc1)C1CCCN(Cc2cnn(-c3ccccc3)c2-n2cccc2)C1 (configuration not stated) | -5.36 |

| SMILES | inhibition [%] |
| --- | --- |
| CCCc1cc(C(=O)Nc2ccc(C(C)=O)cc2)no1 | 29.9 |
| O=C(CCl)N(c1ccccc1)C1CCS(=O)(=O)C1 (configuration not stated) | 24.5 |
| COc1ccc(S(=O)(=O)NCCOc2ccccc2)cc1F | 4.71 |
| CCOC(=O)N1CCN(S(=O)(=O)/C=C/c2ccccc2)CC1 | -5.61 |
| O=C(CSc1nnc(NC(=O)c2cccc(F)c2)s1)NCC1CCCO1 (configuration not stated) | 5.02 |
| C=CCOC(=O)C1CC=CCC1C(=O)Oc1ccc(F)cc1F (configuration not stated) | 2.14 |
| O=C(c1ccsc1)N1CCCC(N2CCN(c3ccccc3F)CC2)C1 (configuration not stated) | -5.18 |
| CN(C(=O)C1CCC(=O)N(Cc2ccccc2F)C1)C1CCOCC1 (configuration not stated) | -10.4 |
| Cc1ccccc1NS(=O)(=O)c1cc(C(=O)N2CCCC2)ccc1Cl | -10.7 |
| CN(C(=O)C1CCN(S(=O)(=O)c2cccc3nonc23)CC1)C1CCCCC1 | -1.8 |
| COc1cc(/C=C/c2ccc3cccc([N+](=O)[O-])c3n2)ccc1OCC(=O)O | 49 |
| Cc1cc(=O)[nH]c(S/C=C/c2ccccc2)n1 | -1.87 |
| CCCCSCCCNC(=O)c1ccc(CS(=O)(=O)c2ccc(OC)cc2)o1 | 8.07 |
| CCCN(CCC)C(=O)c1ccc2c(c1)S(=O)(=O)c1ccccc1C2=O | -5.39 |
| COc1ccccc1-n1c(C)nc2cc(C(=O)NCC3CCCO3)ccc21 (configuration not stated) | -4.49 |
| Nc1ncc(Br)cc1S(=O)(=O)NCCC(=O)NCc1ccc(F)cc1 | 6.56 |
| CC(C)(C(=O)c1ccccc1)/[N+]([O-])=C/c1ccc(Br)cc1 | 3.61 |
| O=C(COc1ccccc1)Nc1cc(C(F)(F)F)ccc1N1CCCC1 | 12.2 |
| Cc1cc(C(=O)NC2CC(C)(C)Cc3c2cnn3-c2ccccc2C)c(C)o1 (configuration not stated) | 13.8 |
| CCc1ccccc1-n1nnc(-c2ccccc2)n1 | 3.64 |
| CCc1ccc(NC(=O)C2C3/C=C\CCCCC32)cc1 (configuration not stated) | -7.75 |
| O=C1O/C(=C/c2ccccc2)N=C1c1ccccc1 | 8.06 |

| SMILES | inhibition [%] |
| --- | --- |
| CSc1sc(C(=O)N2CCc3ccccc32)cc1S(=O)(=O)C(C)C | 3.8 |
| Fc1ccc(/C=N/n2c(C3CCCCC3)n[nH]c2=S)cc1 | 2.51 |
| Cn1nc(C(C)(C)C)cc1C(=O)NN1CCOCC1 | -9.9 |
| COc1cc(F)ccc1CN1CCC(n2nccc2NC(=O)C2CCOC2)CC1 (configuration not stated) | -2.52 |
| Cc1cccc(Nc2nnc(SCC(=O)Nc3ncc(C(F)(F)F)cc3Cl)s2)c1C | 40.7 |
| COc1ccc(NS(=O)(=O)c2cccc(C(=O)NC3CCC(O)CC3)c2)cc1 (configuration not stated) | 3.25 |
| COc1cc(C(=S)N2CCOCC2)ccc1OC(=O)c1ccc([N+](=O)[O-])cc1[N+](=O)[O-] | 5.71 |
| O=C(O)c1cc2c(o1)CCC/C2=N\O | -1.04 |
| CCOC(=O)c1c(NC(=O)CCS(=O)(=O)c2ccccc2)sc2c1CC(C)(C)NC2(C)C | -5.97 |
| COC(=O)C1CCN(C(=O)COC(=O)CC(NC(C)=O)c2ccccc2)CC1 (configuration not stated) | -9.05 |
| CCCCc1nc(C(N)=O)c2[nH]c(=O)n(-c3ccc(OCC)cc3)c2n1 | 8.14 |
| O=C(Cn1cc2c(n1)CCCC2)NCCc1ccccc1 | -11.9 |
| Cc1ccc(/C=C/C(=O)OCC(=O)NC(C)c2ccccc2)o1 (configuration not stated) | 36.4 |
| CCC(C)(c1ccc(C(=O)OC)s1)c1ccc(C(=O)OC)s1 | 16.6 |
| COc1c2occc2c(OC(C)=O)c2c(=O)cc(C)oc12 | -6.22 |
| CCOC(=O)N1CCN(c2cc(=O)n(-c3ccc(OCC)cc3)c(=O)[nH]2)CC1 | 23.7 |
| Nc1cc(=O)nc(SCc2ccccc2)n1Cc1ccco1 | -5.58 |
| COc1ccccc1-c1cc(C(=O)Nc2cc(C)nn2-c2ccccc2)no1 | -6.43 |
| CCOC(=O)c1ccccc1NC(=O)C1CSC2(C)CCC(=O)N12 (configuration not stated) | -4.16 |
| CC(=O)N1CCOc2cc(S(=O)(=O)NCc3ccc(F)cc3)c(C)cc21 | -11.8 |
| Oc1ccc(Cl)cc1/C=N/c1nc2ccccc2[nH]1 | 3.77 |
| COc1ccccc1OCC(=O)Nc1c2c(nn1-c1ccc(F)cc1)CS(=O)(=O)C2 | 15.7 |

| SMILES | inhibition [%] |
| --- | --- |
| Cc1ccc(F)cc1NC(=O)c1cccc2nccnc12 | 4.78 |
| CCc1ccc(-c2cc(C)no2)cc1S(=O)(=O)N1CCOc2ccc(C)cc21 | 1.47 |
| Cc1noc(NS(=O)(=O)c2ccc(N/C=C/C(=O)c3ccc4c(c3)OCO4)cc2)c1C | 16.6 |
| Cc1ccc2c(c1)N(C(=O)CCC(=O)NCc1ccccc1)CC(C)O2 (configuration not stated) | -8.08 |
| O=c1oc(-c2ccco2)nc2sc3c(c12)CCCCC3 | 3.71 |
| Cn1c(=O)c2c(SCC(=O)N3CCOCC3)nc(-c3ccccc3F)nc2n(C)c1=O | 1.44 |
| COc1ccc2cc(C(=O)C3CCCN(C(=O)c4cncs4)C3)ccc2c1 (configuration not stated) | 0.43 |
| CCCn1c(=O)c2c(nc3n2CCCN3CCc2ccccc2)n(C)c1=O | 4.63 |
| COC(=O)Cc1c(C)nc2nc(-c3ccc(OC)cc3)[nH]n2c1=O | -1.33 |
| O=S(=O)(Cc1ccccc1)NCc1ccccn1 | -8.93 |
| COc1cc2cnc(-c3ccsc3)c(-c3ccc(F)cc3)c2cc1OC | 94.9 |
| CCOC(=O)c1c(NC(=O)COC(=O)c2ncc(Cl)c(Cl)c2Cl)sc(C(=O)N(C)C)c1C | 23.3 |
| CCn1c(=O)cc(SCC(=O)NCc2ccco2)c2ccccc21 | -0.14 |
| O=C(Cn1c(=O)n2ncnc2c2c3c(sc21)CCCC3)c1ccccc1 | 1.16 |
| CCN(CC)S(=O)(=O)c1ccc(NC(=O)c2ccc(OCC3CCCO3)cc2)cc1 (configuration not stated) | 88.7 |
| Cc1ccc(C(=O)N2CCC3(CC2)Oc2ccc(F)cc2C(=O)C32CC(c3cccnc3)=NO2)s1 (configuration not stated) | 12.5 |
| O=C(/C=C/c1ccc2c(c1)OCO2)Nc1c(C(=O)O)[nH]c2ccccc12 | -3.9 |
| CSCCC(NC(N)=O)C(=O)NCc1ccc(Cl)cc1 (configuration not stated) | -10.6 |
| O=C(COc1ccccc1)Nc1ccncc1Cl | 35.5 |
| CN(CC1CCCO1)S(=O)(=O)c1ccc(C(=O)Nc2ccc(S(N)(=O)=O)cc2)cc1 (configuration not stated) | 1.66 |
| O=C(Nc1ccccc1)c1nc[nH]c1C(=O)N1CCc2ccccc2C1 | 81.9 |
| Cc1ccccc1NC(=O)CN1C(=O)c2cccnc2Oc2ccc(Cl)cc21 | 0.44 |

| SMILES | inhibition [%] |
| --- | --- |
| CC1CCC(NC(=O)CN2C(=O)c3cccnc3Oc3ccc(Cl)cc32)CC1 (configuration not stated) | 6.22 |
| Cn1c(/N=C/c2c(O)ccc3ccccc23)nc2ccccc21 | 1.52 |
| Cc1ccccc1N1CCN(C2CCCN(C(=O)c3ccccn3)C2)CC1 (configuration not stated) | 4.83 |
| Cc1cc(NC(=O)C23CCC(C)(C(=O)O2)C3(C)C)no1 (configuration not stated) | 5.45 |
| Cc1ccc(NS(=O)(=O)c2c(C(=O)N3CCOCC3)c(C)n(C)c2C)cc1 | 1.2 |
| Cc1ccc(-c2ccc(=O)n(Cc3ccc(F)cc3)n2)cc1 | 4.02 |
| COc1cc(CCC(=O)Nc2ccncc2Cl)cc(OC)c1OC | -5.29 |
| O=C(COc1ccccc1)Nc1nc2cc3c(cc2s1)OCCO3 | -0.56 |
| COc1ccc(C(=O)Nc2ccccc2C(=O)NC(C(=O)NCc2ccco2)C(C)C)cc1 (configuration not stated) | 14 |
| Cc1ccc(C(=O)OCC(=O)c2c(N)n(C)c(=O)n(C)c2=O)cc1S(=O)(=O)N1CCCCC1 | -2.8 |
| CCCCOc1ccc(/C=C/C(=O)NCCc2nc3ccccc3[nH]2)cc1 | 8.88 |
| CCCC(=O)Nc1nn(C)c2nc3ccc(C)cc3cc12 | -4.73 |
| Cc1cc(C)[n+](C2C3CC4CC(C3)CC2C4)o1 (configuration not stated) | -2 |
| O=C(NC(=S)N1CCOCC1)c1ccc([N+](=O)[O-])cc1 | 7.49 |
| COc1cc(Cl)ccc1OCc1cc(C(=O)N(C)Cc2nnc(C)o2)no1 | 9.23 |
| COc1ccc(CN2CCC(C(=O)Nc3ccc(Oc4ccccc4)nc3)CC2)cc1F | -4.32 |
| COc1ccc(NC(=O)c2sc3nc(N4CCCC4)c4c(c3c2N)CC(C)(C)OC4)cc1 | 22.1 |
| CNC(=S)N/N=C1\C(=O)c2cccc3cccc1c23 | 16.4 |
| Cc1ccc(OCC(=O)N2CCC(N3CC(C)CC(C)C3)CC2)cc1 (configuration not stated) | 1.97 |

From PubChem BioAssay AID434955 (Southern Research Specialized Biocontainment Screening …, 2010)
